Test results published in patent publication US20090281028A1 (Amgen, published 2009).

Molecular target: human Kv1.3 channel (human)
Test: cell-based or functional assay

B1: Fc-L10-ShK[[…]] (CHO-derived, bivalent dimeric) (Fc fusion)
chain: not shown
Question: How did the “IC50 of block of the outward potassium current, whole cell patch clamp” value turn out when B1 was run?
Answer: 15 pM
